Reference: patent US11999716B2, “WDR5 inhibitors and modulators” (priority 2018, dated 2024)
pKi: −log10 of the molar value.

Molecular target: WDR5 (Homo sapiens, UniProt P61964)
Assay: biochemical
Assay type: binding
Conditions: WDR5-His tag (Δ23, residues 24-334) 2 nM; 10mer-Thr-FAM probe 150 nM; Tb-anti-HIS 1 nM; 60 min, room temperature; read-out: Ki for Inhibition of WDR5 by TR-FRET assay

With `Cc1nccn1Cc1cc2c(c(-c3cn(C)nc3C(F)(F)F)c1)CCN(Cc1cccc(Cl)c1)C2=O` [Example 226, 2-(3-Chlorobenzyl)-7-((2-methyl-1H-imidazol-1-yl)methyl)-5-(1-methyl-3-(trifluoromethyl)-1H-pyrazol-4-yl)-3,4-dihydroisoquinolin-1(2H)-one] as the compound, how does the pKi read?
The pKi was greater than 10.30.

With `COc1cc(CN2CCc3c(cc(Cn4cnc5ccccc54)cc3-c3ccc(F)cc3C)C2=O)cc(OC)c1` [Example 227] as the compound, how does the pKi read?
The pKi was less than 7.48.

With `COc1cncc(CN2CCc3c(cc(Cn4ccnc4C)cc3-c3cn(C)nc3C(F)(F)F)C2=O)c1` [Example 228, 2-((5-Methoxypyridin-3-yl)methyl)-7-((2-methyl-1H-imidazol-1-yl)methyl)-5-(1-methyl-3-(trifluoromethyl)-1H-pyrazol-4-yl)-3,4-dihydroisoquinolin-1(2H)-one] as the compound, how does the pKi read?
Its pKi is greater than 10.30.

How did the pKi turn out when `COc1ccnc(CN2CCc3c(cc(Cn4ccnc4C)cc3-c3cc(F)cnc3C)C2=O)c1` [Example 229, 5-(5-Fluoro-2-methylpyridin-3-yl)-2-((4-methoxypyridin-2-yl)methyl)-7-((2-methyl-1H-imidazol-1-yl)methyl)-3,4-dihydroisoquinolin-1(2H)-one] was run?
Its pKi is 9.72.

With `CCn1cc(-c2cc(Cc3ncc[nH]3)cc3c2CCN([C@@H](C)c2cc(OC)ccn2)C3=O)c(C(F)(F)F)n1` [Example 230, (S)-7-((1H-Imidazol-2-yl)methyl)-5-(1-ethyl-3-(trifluoromethyl)-1H-pyrazol-4-yl)-2-(1-(4-methoxypyridin-2-yl)ethyl)-3,4-dihydroisoquinolin-1(2H)-one] as the compound, how does the pKi read?
The pKi was greater than 10.30.

With `Cc1nccn1Cc1cc2c(c(-c3cn(C)nc3C(F)(F)F)c1)CCN(Cc1cccc(-c3ccsc3)c1)C2=O` [Example 231, 7-((2-Methyl-1H-imidazol-1-yl)methyl)-5-(1-methyl-3-(trifluoromethyl)-1H-pyrazol-4-yl)-2-(3-(thiophen-3-yl)benzyl)-3,4-dihydroisoquinolin-1(2H)-one] as the compound, how does the pKi read?
Its pKi is 10.28.

How did the pKi turn out when `Cc1cnnc(CN2CCc3c(cc(Cn4ccnc4C)cc3-c3cn(C)nc3C(F)(F)F)C2=O)c1` [Example 232, 7-((2-Methyl-1H-imidazol-1-yl)methyl)-5-(1-methyl-3-(trifluoromethyl)-1H-pyrazol-4-yl)-2-((5-methylpyridazin-3-yl)methyl)-3,4-dihydroisoquinolin-1(2H)-one] was run?
The pKi was 10.25.

With `Cc1nccn1Cc1cc2c(c(-c3cn(C)nc3C(F)(F)F)c1)CCN(Cc1ccccc1)C2=O` [Example 233, 2-Benzyl-7-((2-methyl-1H-imidazol-1-yl)methyl)-5-(1-methyl-3-(trifluoromethyl)-1H-pyrazol-4-yl)-3,4-dihydroisoquinolin-1(2H)-one] as the compound, how does the pKi read?
Its pKi is 9.70.

With `Cc1nccn1Cc1cc2c(c(-c3cn(C)nc3C(F)(F)F)c1)CCN(Cc1cccc(C3CC3)c1)C2=O` [Example 234, 2-(3-Cyclopropylbenzyl)-7-((2-methyl-1H-imidazol-1-yl)methyl)-5-(1-methyl-3-(trifluoromethyl)-1H-pyrazol-4-yl)-3,4-dihydroisoquinolin-1(2H)-one] as the compound, how does the pKi read?
The pKi was greater than 10.30.

How did the pKi turn out when `Cc1nccn1Cc1cc2c(c(-c3cn(C)nc3C(F)(F)F)c1)CCN(Cc1cc(Br)cc3[nH]ccc13)C2=O` [Example 236, 2-((6-Bromo-1H-indol-4-yl)methyl)-7-((2-methyl-1H-imidazol-1-yl)methyl)-5-(1-methyl-3-(trifluoromethyl)-1H-pyrazol-4-yl)-3,4-dihydroisoquinolin-1(2H)-one] was run?
The pKi was greater than 10.30.

`COc1ccnc([C@H](C)N2CCc3c(cc(Cn4ccnc4C)cc3-c3c[nH]nc3C(F)(F)F)C2=O)c1` [Example 237, (S)-2-(1-(4-methoxypyridin-2-yl)ethyl)-7-((2-methyl-1H-imidazol-1-yl)methyl)-5-(3-(trifluoromethyl)-1H-pyrazol-4-yl)-3,4-dihydroisoquinolin-1(2H)-one] was tested. Which pKi did it give?
The pKi was greater than 10.30.

`COc1ccnc([C@H](C)N2CCc3c(cc(Cn4ccnc4C)cc3-c3c[nH]nc3C)C2=O)c1` [Example 238, (S)-2-(1-(4-methoxypyridin-2-yl)ethyl)-7-((2-methyl-1H-imidazol-1-yl)methyl)-5-(3-methyl-1H-pyrazol-4-yl)-3,4-dihydroisoquinolin-1(2H)-one] was tested. Which pKi did it give?
The pKi was greater than 10.30.

How did the pKi turn out when `Cc1cc(CN2CCc3c(cc(Cn4ccnc4C)cc3-c3cn(C)nc3C(F)(F)F)C2=O)cnc1C` [Example 241, 2-((5,6-Dimethylpyridin-3-yl)methyl)-7-((2-methyl-1H-imidazol-1-yl)methyl)-5-(1-methyl-3-(trifluoromethyl)-1H-pyrazol-4-yl)-3,4-dihydroisoquinolin-1(2H)-one] was run?
The pKi was greater than 10.30.

With `Cc1cc(CN2CCc3c(cc(Cn4ccnc4C)cc3-c3cn(C)nc3C(F)(F)F)C2=O)cnc1Cl` [Example 242, 2-((6-Chloro-5-methylpyridin-3-yl)methyl)-7-((2-methyl-1H-imidazol-1-yl)methyl)-5-(1-methyl-3-(trifluoromethyl)-1H-pyrazol-4-yl)-3,4-dihydroisoquinolin-1(2H)-one] as the compound, how does the pKi read?
Its pKi is greater than 10.30.

How did the pKi turn out when `CCn1cc(-c2cc(Cn3ccnc3C)cc3c2CCN([C@@H](C)c2cncc(OC)c2)C3=O)c(C(F)(F)F)n1` [Example 243, (S)-5-(1-Ethyl-3-(trifluoromethyl)-1H-pyrazol-4-yl)-2-(1-(5-methoxypyridin-3-yl)ethyl)-7-((2-methyl-1H-imidazol-1-yl)methyl)-3,4-dihydroisoquinolin-1(2H)-one] was run?
Its pKi is greater than 10.30.

`CCn1cc(-c2cc(Cn3cnc(C)c3)cc3c2CCN([C@H](c2cc(OC)ccn2)C2CC2)C3=O)c(C(F)(F)F)n1` [Example 244, (S)-2-(cyclopropyl(4-methoxypyridin-2-yl)methyl)-5-(1-ethyl-3-(trifluoromethyl)-1H-pyrazol-4-yl)-7-((4-methyl-1H-imidazol-1-yl)methyl)-3,4-dihydroisoquinolin-1(2H)-one] was tested. Which pKi did it give?
Its pKi is greater than 10.30.

`CCn1cc(-c2cc(Cn3ccnc3)cc3c2CCN([C@H](c2cc(C)ccn2)C2CC2)C3=O)c(C(F)(F)F)n1` [Example 245, (S)-7-((1H-imidazol-1-yl)methyl)-2-(cyclopropyl(4-methylpyridin-2-yl)methyl)-5-(1-ethyl-3-(trifluoromethyl)-1H-pyrazol-4-yl)-3,4-dihydroisoquinolin-1(2H)-one] was tested. Which pKi did it give?
The pKi was greater than 10.30.

`Cc1nccn1Cc1cc2c(c(-c3cn(C)nc3C(F)(F)F)c1)CCN(c1cnccc1-c1ccccc1)C2=O` [Example 246, 7-((2-Methyl-1H-imidazol-1-yl)methyl)-5-(1-methyl-3-(trifluoromethyl)-1H-pyrazol-4-yl)-2-(4-phenylpyridin-3-yl)-3,4-dihydroisoquinolin-1(2H)-one] was tested. Which pKi did it give?
The pKi was 9.36.

`COc1ccnc([C@H](C)N2CCc3c(cc(Cn4ccnc4C)cc3-c3ccncc3C(F)(F)F)C2=O)c1` [Example 248, (S)-2-(1-(4-Methoxypyridin-2-yl)ethyl)-7-((2-methyl-1H-imidazol-1-yl)methyl)-5-(3-(trifluoromethyl)pyridin-4-yl)-3,4-dihydroisoquinolin-1(2H)-one] was tested. Which pKi did it give?
The pKi was greater than 10.30.

`COc1ccnc([C@H](C)N2CCc3c(cc(Cn4ccnc4C)cc3-c3cncnc3C(F)(F)F)C2=O)c1` [Example 249, (S)-2-(1-(4-Methoxypyridin-2-yl)ethyl)-7-((2-methyl-1H-imidazol-1-yl)methyl)-5-(4-(trifluoromethyl)pyrimidin-5-yl)-3,4-dihydroisoquinolin-1(2H)-one] was tested. Which pKi did it give?
Its pKi is 9.66.
